Experimental data published in patent US20240218073A1, “IMMUNOMODULATORY ANTI-CD73 ANTIBODIES AND USES THEREOF” (Corvus Pharmaceuticals, Inc., priority 2019, published 2024).

Key:
[1] = molecular target: T1, CD73 expressed on primary human peripheral blood mononuclear cells (Homo sapiens, UniProt P21589); assay: CD73 enzymatic activity on primary human PBMCs (AMP remaining, CellTiterGlo); conditions: 300 nM antibody, 4 hours incubation with AMP, 9 donors
T1 sequence (P21589 27-549): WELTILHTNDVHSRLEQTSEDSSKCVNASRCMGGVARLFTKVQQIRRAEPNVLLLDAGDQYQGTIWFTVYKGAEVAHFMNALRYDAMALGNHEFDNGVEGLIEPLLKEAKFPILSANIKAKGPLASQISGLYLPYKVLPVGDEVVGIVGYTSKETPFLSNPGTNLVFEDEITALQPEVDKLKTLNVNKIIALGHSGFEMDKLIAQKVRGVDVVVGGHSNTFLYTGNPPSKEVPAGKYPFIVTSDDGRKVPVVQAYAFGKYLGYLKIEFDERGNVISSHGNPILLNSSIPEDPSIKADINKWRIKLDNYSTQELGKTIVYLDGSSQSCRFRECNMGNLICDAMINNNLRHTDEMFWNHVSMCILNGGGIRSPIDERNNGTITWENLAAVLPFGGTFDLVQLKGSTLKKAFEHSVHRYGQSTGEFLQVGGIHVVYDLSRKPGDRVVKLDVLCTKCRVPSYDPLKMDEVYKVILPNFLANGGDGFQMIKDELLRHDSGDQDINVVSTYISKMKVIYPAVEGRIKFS

[2] = system: human B cells; assay type: cell-based
[3] = Phase 1 trial in cancer patients: serum immunoglobulins; assay type: in vivo, human; conditions: pre-treatment vs 9, 18 and 27 weeks
Text: Blood was collected from patients treated with CPI-006 for immunoglobulins analysis at pre-treatment or prior to dose administration at the beginning of Cycle 4 (9 weeks), Cycle 7 (18 weeks) and Cycle 10 (27 weeks).
CPI-006 is being evaluated as an immunotherapy for cancer in an ongoing phase 1 study (NCT03454451). The cancers being evaluated in the study include non-small cell lung cancer, renal cell cancer, colorectal cancer, triple negative breast cancer, cervical cancer, ovarian cancer, pancreatic cancer, endometrial cancer, sarcoma, squamous cell carcinoma of the head and neck, bladder cancer, metastatic castration resistant prostate cancer, and non-Hodgkin lymphoma. […] Memory B cells are essential for both acute and long-term immunity as they have undergone immunoglobulin rearrangement and somatic hypermutation in order to produce high affinity, antigen-specific antibody upon exposure to antigen. […] These new B cell clones were limited to 2-40 clones per patient and appeared with frequencies as high as 1:100 B cells, consistent with a robust clonal expansion following an antigen-specific response (FIG. 15I-15K). The cognate antigens recognized by these new B cell clones are currently under characterization.

[4] = molecular target: T2, cellular CD73 (Homo sapiens, UniProt P21589); assay: CD73 catalytic activity on MDA-MB-231 cells (phosphate released from AMP); conditions: 250 μM AMP, baseline from CRISPR CD73 knockout cells and 1 mM APCP
T2 sequence (P21589 27-549): T1 sequence (P21589 27-549)

[5] = system: B cells; assay: B cell death / ADCC; assay type: cell-based, human
[6] = system: human B cells
[7] = system: B lymphocytes; assay: B cell activation and maturation markers by flow cytometry in vitro; assay type: cell-based, human
Description: FIG. 6 are bar graphs showing CPI-006 directly activates B lymphocytes. Purified B cells were incubated overnight with 10 μg/mL human IgG1 isotype control or CPI-006 or anti-IgM microbeads, a positive control for BCR stimulation. Expression of activation markers CD69, CD83, CD86, CD25 or MHC-II was measured by flow cytometry. Mean fluorescence intensity (MFI) was determined for each activation marker and was normalized to the untreated condition for each donor. The figure legend from top to bottom is representative of each group of four bars from left to right. (N=3-5 donors).
FIG. 7 illustrates expression of CD69 on B cells (CD19+CD3−) as measured by flow cytometry and reported by MFI. Human PBMCs were incubated overnight with 10 μg/mL CPI-006 with or without NECA over a range of concentrations or 10 μM APCP. Expression of CD69 on B cells (CD19+CD3−) was measured by flow cytometry and MFI is reported. Error bars represent mean±SD. *p<0.05, **p<0.01 as determined by t-test.
Human B cells were stimulated in vitro with CPI-006 or CPX-016 (1 ug/ml) or an isotype control for 3 days. IgD and CD27 expression were evaluated by flow cytometry. The mean fluorescence intensity (MFI) of each marker was determined in FlowJo and normalized to CPX-016. N=3 donors shown. For each group of two bars, left bar represents treatment with […] and right bar represents treatment with CPX-006.
FIG. 13A: Purified B cells from 3-5 healthy donors were incubated overnight with human IgG1 isotype control or CPI-006 (10 μg/mL) or anti-IgM microbeads, a positive control for BCR stimulation. Expression of activation markers CD69, CD83, CD86, or MHC-II was measured by flow cytometry. FIG. 13B: Time dependent increases in the expression of CD27, IgG, IgM, CD38, and CD138 on purified B cells cultured in the presence of CPI-006 or isotype control (1 μg/mL). Mean fluorescence intensity (MFI) was determined for each marker and was normalized to the untreated or isotype control for each donor. […] Expression of CD69 (MFI) was measured by flow cytometry. FIG. 13D: Purified B cells were incubated overnight with 10 μg/mL human IgG1 isotype control or CPI-006 or equimolar CPI-006 Fab. CD69 and CD73 were measured on B cells by flow cytometry. FIG. 13E: Human PBMCs were incubated overnight with a fixed concentration of CPI-006 (10 μg/mL) along with ibrutinib or vehicle control over a range of concentrations. Expression of CD69 on B cells (CD19^POSCD3^NEG) was measured by flow cytometry.
(§1) CD73 is expressed on subsets of human hematopoietic cells and had previously been implicated to play a role in lymphocyte activation and adhesion. The inventors performed a flow cytometry-based screen to identify differentially expressed cell surface markers on immune cells following in vitro treatment with CPI-006. […] CPI-006 induced activation was dose-dependent with concentrations of 1 μg/mL achieving near maximal induction of CD69 in vitro (FIG. 13C).

[8] = system: T cells; assay: T cell proliferation of anti-CD3/anti-CD28 activated PBMCs in the presence of AMP; assay type: cell-based, human; conditions: 500 nM antibody, 13 donors
Description: (§2) FIG. 12A: CD73 catalytic activity was measured with MDA-MB-231 cells or MDA-MB-231 CD73 CRISPR cells in the presence of CPI-006, oleclumab, or 1 mM APCP by adding 250 μM AMP and measuring phosphate levels in the cell culture supernatant. FIG. 12B: Human PBMCs were incubated with AMP in the presence of CPI-006, oleclumab, or isotype control antibody at the saturating concentration of 300 nM. After 4 hours of incubation, the AMP remaining in the supernatant was quantified using the CellTiterGlo assay as described in the Methods. Percentage of inhibition was plotted. Data represent 9 individual donors and error bars represent mean±SD. ****p<0.0001 as determined by t-test. FIG. 12C: Human PBMCs were activated with anti-CD3/anti-CD28 in the presence of AMP and a range of doses of CPI-006, oleclumab, or isotype control antibody. T cell proliferation was assessed by flow cytometry. T cell proliferation for 13 donors treated with 500 nM CPI-006 or oleclumab or 890 nM isotype control. Error bars represent mean±SD. *p<0.05, ***p<0.001, and ****p<0.0001 as determined by t-test. […] After 4 days in culture, IFNg levels in the supernatant were measured by AlphaLISA (Perkin Elmer). […] Error bars represent mean±SD. *p<0.05 and **p<0.01 as determined by t-test. […]

[9] = system: circulating CD73^POS B cells; assay: Phase 1 trial in cancer patients: peripheral blood immunophenotyping by flow cytometry; assay type: in vivo, human
[10] = system: T cells; assay: IFNg production of activated PBMCs in the presence of AMP (AlphaLISA); assay type: cell-based, human; conditions: PBMCs + anti-CD3/anti-CD28 + AMP, 4 days, 6 donors
Description: as §2

[11] = system: Naïve B cells; assay: B cell morphology (cytospin, Wright Giemsa staining); assay type: cell-based, human; conditions: 48 hours after treatment, 3 donors
Description: FIG. 8 are representative microscopy images of human B cells. Cells were treated with CPI-006 or hIgG1 isotype control (top row). Stimulation of B cells through IgM represents a known method for activating B cells and promoting differentiation. Anti-IgM, along with an appropriate isotype control, were therefore included as a positive control (bottom row). Images were collected 48 hours after treatment after cells were cytospun onto slides and Wright Giemsa staining. Data are representative of 3 independent donors.
as §1

[12] = system: B cell clones; assay: Phase 1 trial in cancer patients: B cell receptor repertoire analysis; assay type: in vivo, human
Description: B cell receptor sequencing of the CDR3 region was performed to identify the frequency of B cell clones in peripheral blood samples collected pre-treatment and on-treatment at 6 weeks. Expansion of B cell clones was observed after 6 weeks in 7 of 11 evaluated patients. Clonal abundance plots are shown for patients treated with 6 mg/kg CPI-006 (left panel), 6 mg/kg CPI-006+ ciforadenant (center panel), and 12 mg/kg CPI-006 (right panel). Ciforadenant is also known as CPI-444.
B cell receptor sequencing of the CDR3 region was performed to identify the frequency of B cell clones in peripheral blood samples collected pre-treatment and on-treatment at 6 weeks. Cancer type, treatment, and dosage for each patient are as indicated above each clonal abundance plot.
CPI-006 is being evaluated as an immunotherapy for cancer in an ongoing phase 1 study (NCT03454451). The cancers being evaluated in the study include non-small cell lung cancer, renal cell cancer, colorectal cancer, triple negative breast cancer, cervical cancer, ovarian cancer, pancreatic cancer, endometrial cancer, sarcoma, squamous cell carcinoma of the head and neck, bladder cancer, metastatic castration resistant prostate cancer, and non-Hodgkin lymphoma. […]

CPI-006: humanized anti-CD73 IgG1k antibody with 1E9 CDRs (SEQ ID NO:1-6) and N297Q mutation eliminating Fc effector functions
enzymatic activity of CD73 on PBMCs [1]: eliminated the enzymatic activity of CD73
IgG levels in culture supernatant (class switching) ([2]; 5000 purified human B cells, 0.1 and 1.0 ug/mL, 7 day incubation): induces antibody class switching to IgG
increase in IgM levels relative to isotype control ([2]; culture supernatant six days after in vitro treatment): 3 fold
increase in IgG1 levels relative to isotype control ([2]; culture supernatant six days after in vitro treatment, IgGk not measured): 3 fold
circulating Ig levels in serum [3]: No consistent change in circulating Ig levels
CD73 activity (free phosphate levels generated upon conversion of AMP to adenosine) [4]: inhibited CD73 activity to baseline levels
B cell death / ADCC [5]: does not induce B cell death or initiate ADCC
induction of IFNg, IL-2, IL-6, IL-10, TNFa ([6]; healthy donor PBMCs (data not shown)): did not induce IFNg, IL-2, IL-6, IL-10, or TNFa
production of B cell cytokines CCL3, CCL4, CCL2, CCL22 ([6]; purified B cells, 10 μg/mL, 5 days): induced production of B cell cytokines such as CCL3, CCL4, CCL2, and CCL22
B cell subset activated ([7]; CD69 and CD73 measured on B cells): restricted to CD73^POS B cells
IgD and CD27 expression (MFI) ([7]; human B cells, 1 ug/ml, 3 days, normalized to CPX-016, 3 donors): decreases IgD and increases CD27
concentration achieving near maximal induction of CD69 ([7]; in vitro, dose-dependent): 1 µg/mL
cell surface expression of CD27, IgG, CD38, CD138 ([7]; purified B cells, 1 μg/mL, time dependent): increased cell surface expression of CD27, IgG, CD38, and CD138
expression of CD69, CD83, CD86, MHC-II on B cells ([7]; purified B cells, 10 μg/mL, overnight, positive control anti-IgM): upregulation of activation markers (CD69 and CD83) and antigen presentation machinery (CD86 and MHC-II) to similar levels achieved with the positive control
T cell proliferation [8]: restored T cell proliferation in all donors tested
circulating CD73^POS B cells ([9]; 1-24 mg/kg, 30 minutes after antibody infusion): dramatic decreases in circulating CD73^POS B cells at all CPI-006 dose levels
return of B cells to circulation ([9]; 21-day cycle): returned to circulation at levels similar to baseline by day 21
patients with increase in HLA-DR expression specific to CD73^+ B cells ([9]; single agent or with ciforadenant, Day 7): 5 of 6
memory B cells among returning B cells ([9]; ≥3 mg/kg): enriched in CD27^POS IgD^NEG class switched memory B cells in the majority of subjects
cytokine (IFNg) production [10]: restores T cell proliferation and cytokine production
morphological changes of B cells [11]: morphological changes consistent with differentiation into plasmablasts
new B cell clones per patient ([12]; 21 days after treatment): 2-40 clones per patient
patients with expansion of B cell clones ([12]; after 6 weeks, CPI-006 alone or with ciforadenant): 7 of 11
